Measurements as given in the supplement of paper PMC11417369.
The list shows a part of the results.

tested on: PfAP2-HC AP2 domain (GST-tagged); experiment: gcPBM binding intensity (ln(normalized median fluorescence intensity)); higher = stronger DNA binding
Summary of the method: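 An Agilent 4 × 180k array of primer-extended double-stranded 36-bp intergenic genomic probes, with negative controls, was incubated for 1 h with GST-tagged P. falciparum DNA-binding domains expressed in E. coli. Alexa488 anti-GST antibody detected bound protein, scanned at 488 nm. Binding intensity is the highest Masliner-normalised natural-log median intensity across replicate spots of either probe orientation.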

Sequence	gcPBM binding intensity (ln)
CTGTATAAAACCAATGCATGTAAATATATTAATATA [TGCATGCA_site511]	9.57
AAAATATATATAAATGCATGCATAATGAAATATATA [TGCATGCA_site39]	9.92
TTTTAAAAAACAAACACACACGTAGAAAAAAAAAAA [CACACA_site4608]	10.2
GAAATTTTATTTCGGCGGACAAATGTATACTTTCTT [XGTACX_site4238]	9.63
CCATTTACATTGTGAAGTACTAAAAAAAAATGTAGA [XGTACX_site7882]	9.48
ACAAGGAATATAAAAAGTACATAAAATACATAAAAA [XGTACX_site1217]	9.85
TATGGATGTATTCATACATGCACACGTACATATTTA [TGCATGCA_site991]	9.73
ATAATTTGATGGTTAACACACATATATATTATATAT [CACACA_site2449]	9.87
ATATAAATATAAATATATATGTATAAATATAAATAT [CACACA_negctrl_site247]	9.84
ATATATTATTATAACTGTACTTTTTTTGTGGTTAAT [XGTACX_site8266]	9.68
TATGCGTATATATAAATACACACCAAATGTTAATAT [CACACA_site1713]	9.7
ATCATTTTTAAAGGAACACACAAAAAAAGTTATAAT [CACACA_site6761]	9.71
TATATATATATATATACACACAAAAAAATAAATTCT [CACACA_site98]	9.94
ATTTATTTTAATAATTGTACATGTTATTTTATATAT [XGTACX_site2667]	9.81
TACTTTTCATCTTCTTAACACACAAAAAAAAAAAAA [CACACA_site9290]	9.37
TATATATATATGTGCACACCAATTGTATGTAATATA [CACACA_site3889]	10
TATTTAATTACATGAACACACATTATATATTTTTAA [CACACA_site5615]	9.64
TTTATATTATTAGAAACACACATTAGATTAAAATTA [CACACA_site3286]	9.54
TACATAATAACATGTACACACATTCTTCTATAAATG [CACACA_site4061]	9.77

Sequence	gcPBM binding intensity (ln)
ACATAATAAAAATGACGTACAATTTTTTTTTTTCAT [XGTACX_site8340]	9.6
CATTAAAAAGAAAGTTCACACACATATATATGACGG [CACACA_site8836]	10.1
ATATAACACATTAGTTGTACTATTTTTAATTGGTGA [XGTACX_site961]	9.58
ACTACATAATATTAACGTACATATTATAATACTTGC [XGTACX_site954]	9.77
TAGCCCATATGGAATACACACTGAAAATAAAAAAAG [CACACA_site5799]	9.73
TTACAATAAATTATAGTGCAATATTTTATTTAATAT	9.48
ATGAATAATTAATGATGTACTTAAAAAAAAAAATAT [XGTACX_site6346]	9.53
AAAAAAAAAAAAAAAAAAAAAAAAAAAAAAACATAT [GTGCAC_negctrl_site580]	9.43
ATATATTATATTGAATGTACATATATATATTATATA [XGTACX_site8445]	9.58
GTTAATATCTTGAACAGTACTCTAAATATCTACATA [XGTACX_site5358]	9.57
CAATGTTGTACATACACACACACAAAAAAAAAATAA [CACACA_site2407]	11.4
TTCAAATTTCCACATACACACCTTGTAGATCTATAT [CACACA_site6270]	9.92
ATAAAAAAACACACTCGTACACACATATTTTCTTTC [XGTACX_site6565]	10.2
GATAATAATAAACAACCACACACAAAAAAACAAAAA [CACACA_site9074]	10.6
TGCTATAATTTATATACACACAAATATATACACATA [CACACA_site9356]	9.75
TTTTTTTTTTTTTTTTGTACATATAAAAATACGTAA [XGTACX_site6003]	8.98
TCACTACATTTTGGACGTACACAACTTGATATATTG [XGTACX_site4775]	9.83
ATGATATACTTGAGTGTGCACAAACTATTACTTACA	10.1
AAATCTTAACTCTATGCACACATAAAAGTATATAAA [CACACA_site8709]	9.58

Sequence	gcPBM binding intensity (ln)
ATTTTGATGATGTATGCACACATTGAAAATGAGAAA [CACACA_site2916]	9.9
ATATATATATATATATGTACATATTTGATTTTTCTT [XGTACX_site8171]	9.6
TATATATCGCCCTTCACACACACACGGATATAAATA [CACACA_site7221]	10.2
CGCTCTTATAAATGTTGTACATAAAACTGTTCATTA [XGTACX_site3409]	9.63
ATAATAAATATATAATGTACATATTATGTTCTTTAT [XGTACX_site8655]	9.65
ATCGGTAATATTAACACACACATTTATATATATTTA [CACACA_site1084]	10.2
TTTTGTAGATATTGAAGTACAAAAAAAATGTAAAAG [XGTACX_site5905]	9.59
TTTTTTAATATATTATTATAAATATTTTTTATGTGT [GTGCAC_negctrl_site712]	9.72
CATAATGTAAATAAGTGTACACATATATAATACATA [XGTACX_site3108]	9.85
ATGCGTTAATCTATATATATTATGTATAGATTTTCA [CACACA_negctrl_site1650]	9.63
AACATATTTATGATGTGTACCTACATAATAGAATTT [XGTACX_site141]	9.67
AACATTATGTTTATTTGTACATATAAATATATGTAA [XGTACX_site7389]	9.43
TCTTTTATGATATTTACACACAAACGTGAGATAGCT [CACACA_site2312]	9.77
CTCTACGAATTCATAGTGCAAAGAGCTAATTTTTTC [GTGCAC_site9710]	9.39
GATCATTCAGTTTTATCACACACAATCAAACATATA [CACACA_site8882]	9.89
ATATTTTGATAATATTGTACAAAAACATTAAAATGT [XGTACX_site8361]	9.66
TAATCCATAAGAAGCACACACATATAAATATATTTT [CACACA_site6774]	10.1
TTTAAATATTTTAACACACTCATATTTAGGTTACAA [CACACA_site5685]	9.61
TTTACATATTTATATACACACTTTTGCGTGTCTGGT [CACACA_site4750]	10.2
